# Laboratory results: PubChem BioAssay AID624417 (National Center for Advancing Translational Sciences (NCATS), 2012)
# In all, about 410,000 compounds went through this assay and about 6,400 (1.6%) were called active. This list was built around the results that the source calls inconclusive (neither active nor inactive); the mix of calls is not that of the screen. The call rests on the fitted dose curve; in most records, active means well fitted inhibition curve with a large enough effect; inconclusive means small, poorly fitted or top-dose-only effect; inactive means no such curve, though single readings can be large or run the other way. Potencies of inconclusive entries are left out as doubtful fits.
# Target: Glucagon-like peptide 1 receptor (Homo sapiens) (UniProt P43220)
# Assay: qHTS of GLP-1 Receptor Inverse Agonists (Inhibition Mode); further: nearly all actives have a fitted effect of over 55% in size
# Settings: HEK293 GLP-1R CRE-luciferase, luminescence, 24 h, GLP-1R form is constitutively active; activity change, negative = inhibition: at 38.3 µM (top of the series) unless noted
# Summary of the method: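 Inverse agonism was detected as reduced cAMP-driven luciferase luminescence after 24 h compound treatment. The cells were HEK293 clones expressing constitutively active human GLP-1R with the reporter. Reporter-only and GPR119 cell lines served as counterscreen controls.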
# On the % scale 0 is the no-effect control and ±100 the full control effect; potency means the concentration at half of the fitted maximal effect; tags describe the fitted curve by direction and shape.
# Chain of UniProt P43220 (P43220 whole entry, looked up): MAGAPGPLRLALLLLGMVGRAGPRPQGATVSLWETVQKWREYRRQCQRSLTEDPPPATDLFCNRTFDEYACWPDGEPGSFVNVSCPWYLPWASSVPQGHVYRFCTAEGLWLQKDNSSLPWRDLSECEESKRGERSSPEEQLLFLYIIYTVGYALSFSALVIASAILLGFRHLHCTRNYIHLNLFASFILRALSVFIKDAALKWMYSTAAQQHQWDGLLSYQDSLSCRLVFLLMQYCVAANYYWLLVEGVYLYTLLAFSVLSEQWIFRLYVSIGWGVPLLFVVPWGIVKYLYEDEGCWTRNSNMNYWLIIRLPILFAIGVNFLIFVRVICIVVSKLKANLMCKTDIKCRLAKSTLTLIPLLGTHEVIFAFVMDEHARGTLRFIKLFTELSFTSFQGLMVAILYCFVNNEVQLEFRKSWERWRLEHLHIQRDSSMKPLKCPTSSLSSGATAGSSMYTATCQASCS
SMILES,Potency,"activity change, negative = inhibition"
Cc1cc(Sc2ncnc(N)c2[N+](=O)[O-])ncn1,"inconclusive [inhibitor, single point]",
O=C(CSc1cccc[n+]1[O-])Nc1cc2c(cc1Cl)C(=O)c1ccccc1C2=O,,inactive: 28.9%
COc1cc(/C=C/c2nc(C#N)c(N3CCCCC3)o2)cc(OC)c1OC,,inactive: 4.84%
CCC(C(=O)N1CCN(c2ccccc2OC)CC1)c1ccccc1 (stereo not drawn),"inconclusive [inhibitor, partial curve, poor fit]",
CN(C(=O)c1cc2n(n1)C(C(F)(F)F)CC(c1ccco1)N2)c1ccc(OC(F)(F)F)cc1 (stereo not drawn),"inconclusive [inhibitor, partial curve, poor fit]",
COc1ccc(-c2csc(C(C)(O)c3ccncc3)n2)cc1OC (stereo not drawn),,inactive: 16.9%
Cc1ccc(C)c(Nc2cc(C(=O)NCc3cccnc3)c3ccccc3n2)c1,"inconclusive [inhibitor, single point]",
CC(C)(CO)Nc1nc(Nc2ccccc2)nc(Nc2ccccc2)n1,"inconclusive [inhibitor, partial curve, poor fit]",
COc1ccc2[nH]c3c(N4CCc5ccccc5C4)ncnc3c2c1,"inconclusive [inhibitor, partial curve, poor fit]",
CC1=C(C(=O)NCc2cccc(Br)c2)C2(CCCCC2)OC1=O,"inconclusive [inhibitor, partial curve, poor fit]",
COC(=O)[C@@]12C[C@@H](CC(=O)N3CCCCC3)C(=O)N(Cc3cccc4ccccc34)C1=CCC(C)(C)C2,"inconclusive [inhibitor, single point]",
CCC1(c2ccccc2)NC(=O)N(CC(=O)Nc2cc(S(=O)(=O)N3CCCCC3)ccc2OC(C)C)C1=O (stereo not drawn),"inconclusive [inhibitor, single point]",
O=C(Nc1cccnc1)C1CCC(CNS(=O)(=O)c2cccc3nsnc23)CC1 (stereo not drawn),,inactive: -7.28%
CN(C)CCCNCC(=O)c1c(-c2ccccc2)n(C)c2ccccc12,"inconclusive [inhibitor, partial curve, poor fit]",
Cc1cccc(NS(=O)(=O)c2cccc(C(=O)NCc3ccccc3CN3CCOCC3)c2)c1,"inconclusive [inhibitor, single point]",
CCOc1ccc(NC(=O)CSc2nc3c(oc4ccccc43)c(=O)n2-c2cc(C)cc(C)c2)cc1,,inactive: 0.188%
Cc1c(C(=O)NCc2ccc(Cl)c(Cl)c2)sc(=O)n1Cc1ccccc1F,"inconclusive [inhibitor, single point]",
O=C(Nc1cccc(S(=O)(=O)Nc2ccc(Cl)cc2)c1)c1cc2c(s1)CCCC2,"inconclusive [inhibitor, partial curve, poor fit]",
O=C(O)c1ccc(NC2=C(Cl)C(=O)c3ccccc3C2=O)cc1,,inactive: 2.45%
CSc1cc(-c2ccc(Cl)cc2)c(C(=O)N2CCCC2)s1,"inconclusive [inhibitor, partial curve, poor fit]",
COc1ccc(NC(=O)CSC2=Nc3ccccc3C3=NC(CCC(=O)NCc4cccs4)C(=O)N23)cc1 (stereo not drawn),"inconclusive [inhibitor, single point]",

SMILES,Potency,"activity change, negative = inhibition"
O=C(NCCc1ccccc1)C1CCN(c2ncnc3c2nc2n3CCCCC2)CC1,,inactive: -14.4%
COc1cc(CNc2ccc(N3CCN(C(C)=O)CC3)cc2)ccc1OCc1ccc(F)cc1,"inconclusive [inhibitor, full curve, poor fit]",
COCCCNCCOCCOc1ccc(C)cc1Br,"inconclusive [inhibitor, partial curve, poor fit]",
Cc1ccc(NC(=S)N(CCN(C)C)Cc2cc3cccc(C)c3[nH]c2=O)cc1,"inconclusive [inhibitor, single point]",
CCN(CC(=O)NCc1cccs1)C(=O)c1cc(S(=O)(=O)N2CCCCC2)ccc1Cl,"inconclusive [inhibitor, partial curve, poor fit]",
CCOC(=O)c1cnc(-n2nc(C)cc2C)nc1NNc1ncc(-c2ccccc2)cn1,"inconclusive [inhibitor, partial curve, poor fit]",
COc1ccc(C(C#N)=C2C=CC(=NO)c3ccccc32)cc1,"inconclusive [inhibitor, full curve, poor fit]",
CCCCc1ccc(NC(=S)NCCN2CCOCC2)cc1,"inconclusive [inhibitor, single point]",
Cc1cc(=O)nc2c3ccccc3n(CC(=O)NC(C)c3ccc4c(c3)OCCO4)n12 (stereo not drawn),,inactive: 9.08%
CC(=O)Nc1ccc(NC(=O)CCc2nc3ccccc3c(=O)[nH]2)cc1,,inactive: 17.2%
COc1cccc2sc3ccc(NCCC4CCCN4C)cc3c(=O)c12 (stereo not drawn),"inconclusive [inhibitor, single point]",
COc1ccc(-c2oc3cc(O)c(OC)c(O)c3c(=O)c2OC)cc1O,"inconclusive [inhibitor, full curve, poor fit]",
C[C@@H](c1ccccc1)N1C[C@H](COCc2ccccc2)Oc2cc(N3CCC[C@H]3CO)ccc2S1(=O)=O,"inconclusive [inhibitor, single point]",
Cc1ccc(OCCN2CCN(c3ncnc4sc(C)c(C)c34)CC2)cc1,"inconclusive [inhibitor, partial curve, poor fit]",
COC(=O)c1sc(NC(=O)COc2ccc(C)cc2)nc1C,,inactive: 0%
CC1CCN(C(=O)c2[nH]cnc2C(=O)Nc2ccon2)CC1,,inactive: 22%
Cc1ccsc1/C=N/NC(=O)c1cccnc1,,inactive: 48.1%
COc1cc(/C=C2\C(=O)NN(c3ccc(C)cc3)C2=O)cc([N+](=O)[O-])c1O,"inconclusive [inhibitor, full curve, poor fit]",
O=C(Cc1ccc(-n2cccc2)cc1)NC1CCCCC1,"inconclusive [inhibitor, partial curve, poor fit]",
Cc1nc2ccc(S(=O)(=O)N(CC(=O)Nc3cccc(Cl)c3)Cc3ccccc3)cc2s1,,inactive: -38.7%
O=C1c2cc([N+](=O)[O-])ccc2-c2cc(Br)c(N=C(NO)C(F)(F)F)cc21,"inconclusive [inhibitor, partial curve, poor fit]",

SMILES,Potency,"activity change, negative = inhibition"
Cc1cccc(C)c1Nc1nnc(SCC(=O)c2ccc(Br)s2)s1,"inconclusive [inhibitor, single point]",
CCOC(=O)c1ccc(NC(=O)C2(c3ccc(Cl)cc3)CCCC2)cc1,"inconclusive [inhibitor, full curve, poor fit]",
Cc1cccc(OCCCC(=O)Nc2ccc(Cl)c(S(=O)(=O)N3CCOCC3)c2)c1,"inconclusive [inhibitor, partial curve, poor fit]",
CC1CCN(CCCOc2ccc(OCc3ccccc3)cc2)CC1,"inconclusive [inhibitor, single point]",
Cc1ccc(S(=O)(=O)NN=C(c2ccccc2)c2cccs2)cc1,"inconclusive [inhibitor, partial curve]",
CCn1c(N2CCN(S(=O)(=O)c3ccc(OC)cc3)CC2)nc2ccccc21,"inconclusive [inhibitor, partial curve, poor fit]",
COC(=O)c1ccccc1NC(=O)c1ccc(COc2cc(C)cc(C)c2)o1,"inconclusive [inhibitor, single point]",
Cc1[nH]c2ccccc2c1C(=O)CN1CC(C)CC(C)C1 (stereo not drawn),"inconclusive [inhibitor, partial curve, poor fit]",
COc1ccccc1N1CCN(C(=O)c2ccc(-c3nc4ccccc4s3)o2)CC1,"inconclusive [inhibitor, single point]",
Cc1ccccc1N=C1Nc2ccccc2CS1,"inconclusive [inhibitor, single point]",
CC(Oc1ccccc1)C(=O)Nc1nnc(C2CCCCC2)s1 (stereo not drawn),"inconclusive [inhibitor, single point]",
CN(C)CCCOC(=O)C1c2ccccc2Oc2ccccc21,"inconclusive [inhibitor, single point]",
N/C(=N\N=C/c1ccc(F)cc1)N/N=C\c1ccc(F)cc1,"inconclusive [inhibitor, single point]",
CNC(=S)N/N=C/c1ccc(C(C)C)cc1,"inconclusive [inhibitor, single point]",
N#CCSCC(=O)Nc1ccc(Cl)cc1,"inconclusive [inhibitor, single point]",
COc1ccccc1C1=NC(c2ccc(C)cc2)N=C1C (stereo not drawn),"inconclusive [inhibitor, single point]",
CCCCNC(=O)c1nc(-c2cc3ccccc3[nH]2)oc1-c1ccccc1,"inconclusive [inhibitor, partial curve]",
CCCCOc1ccc(-c2nnn(C(C)C(=O)OCC)n2)cc1 (stereo not drawn),"inconclusive [inhibitor, single point]",
CCn1c(C(O)c2ccc(C)cc2)nc2ccccc21 (stereo not drawn),"inconclusive [inhibitor, partial curve, poor fit]",
O=C(N/N=C/c1cc(Cl)ccc1O)c1ccncc1,"inconclusive [inhibitor, full curve]",
CC1CCCN(C(C(=O)Nc2ccc3c(c2)OCCO3)c2ccccc2)C1 (stereo not drawn),"inconclusive [inhibitor, partial curve, poor fit]",
